For 67 sequences, switch fluorescence ratio results are on record in the supplement of paper PMC10126150.

This series deals with ATP. The experiment in a line: switch fluorescence ratio, 500 uM ATP over buffer (Cy3 cluster intensity, sum of 5 cycles each) (fold (ratio)); higher = stronger signal-on switching upon ATP binding; sequences stand for … in TCGTCGGCAGCGTCAGATGTGTATAAGAGACAGTTTTTTTTTTTTTTTTTTTTTTTTT…TC. To be noted: aptamer strand: ATP DNA aptamer (quencher-CACCTGGGGGAGTATTGCGGAGGAAGG + anchor), 100 nM annealed; ATP concentration: 500 uM; one replicate. The essentials: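 For every switch-domain sequence, the fluorescence ratio is the mean of per-cluster values, each being summed target-cycle Cy3 intensity over summed buffer-cycle Cy3 intensity. Clusters outside 100-1000 RFU were excluded. On a modified Illumina MiSeq flow-cell, the Cy3-labelled switching-strand clusters were annealed to 100 nM quencher-labelled ATP aptamer, imaged in selection buffer and then after 15 min with 500 uM ATP at 22 °C. Five such cycles were run, with NaOH stripping and re-annealing between them.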

Values marked as one replicate rest on one cluster of the flow cell; about a third of the high ones do not repeat.
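Further: ATP exposure 15 min at 22 °C before imaging.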

Turning to TAGTCCTTTA, the switch fluorescence ratio was 1.05.

As to TATTTACAG, the switch fluorescence ratio stood at 0.993. On to TTGTGATGGT, for which the switch fluorescence ratio is 0.971. Under ATTACTTT stands 1.03; under AAGGCTCGTG, 0.996; under GCAGTCGTCA, 1.04. Under GTCAGTACCT stands 1.21. Take CTAGCGCTCG: the switch fluorescence ratio was 1.01. Under TTACTTAA stands 1.01; under TGTGTGTGGC, 1.05. As to ATTTCCGTCG, the switch fluorescence ratio was found to be 1.04. For GATTGTCTTG, the switch fluorescence ratio turned out to be 1. As to AGTATGGTTC, the switch fluorescence ratio worked out at 0.984. For ACGAGGTCAC, the switch fluorescence ratio amounted to 1.04. In the case of ACCAACTTCT, the switch fluorescence ratio amounted to 1.11. Turning to AGTCTCAATC, the switch fluorescence ratio worked out at 1.02.

As to AGCAATTGTA, the switch fluorescence ratio turned out to be 1.14.

Take TCTGTTAAGA: the switch fluorescence ratio turned out to be 1.03. Consider AACCTACTGT, for which the switch fluorescence ratio came out at 1.14. Turning to CCAAGTCTCA, the switch fluorescence ratio was 0.982.

Turning to TAGGTGGCAG, the switch fluorescence ratio is 1.02. With TCGTTGAAAT, the switch fluorescence ratio came to 1.03. Under ATAAAACAGG stands 1. Under ACATATAGCG stands 0.958. Under CACGACTGGT stands 0.973.

As to AATGGCCGTC, the switch fluorescence ratio was found to be 1.04. In the case of ACAAAGTCAG, the switch fluorescence ratio was determined as 0.998. Under GGGTCATAGA stands 1. For the sequence TCACCGCGCG, the switch fluorescence ratio was determined as 1.04. With GGGATACGGG, the switch fluorescence ratio was 2.54.

On to TAGTGAGATT, for which the switch fluorescence ratio turned out to be 1.05. Under AAGTTGTTAG stands 0.987; under TTTTACCTGT, 0.988; under TATATCAAG, 1.03.

Take CACAGTTTC: the switch fluorescence ratio amounted to 0.984. As to GCTCGAGGGG, the switch fluorescence ratio stood at 0.93. As for TGCTTTTCAT, the switch fluorescence ratio worked out at 0.982. Under CTTCTTGTAC stands 1.18; under TAAATAATGG, 0.999; under CGTCATTATG, 0.996. With CATCCAGATA, the switch fluorescence ratio amounted to 1.08. Turning to GGCTTTGGTT, the switch fluorescence ratio stood at 1. Regarding ATACGCCTCG, the switch fluorescence ratio stood at 0.999. For the sequence ATTGTACTTT, the switch fluorescence ratio stood at 1.02. AACGTCGGGT: the switch fluorescence ratio turned out to be 1.05. Under GGACTGTATT stands 1.1; under CGCCTGGG, 1.01; under CGCATGGCTG, 1.06.

As for AAGATTCGGC, the switch fluorescence ratio was 0.987. As for CTACAAGCTT, the switch fluorescence ratio came out at 1.03.

On to CCATAGTGAT, for which the switch fluorescence ratio turned out to be 1.78. For TGGACGATCT, the switch fluorescence ratio was 1.09. Consider AATCTAAGA, for which the switch fluorescence ratio came out at 0.954.

Turning to GTATTGTGCT, the switch fluorescence ratio turned out to be 0.939. Under CGTATATCTA stands 1.01; under ATCGTTAGTT, 1; under ATCGGGAGTT, 1. For GAGGTACAAG, the switch fluorescence ratio stood at 1.06. CATGGGGTCA: the switch fluorescence ratio was determined as 1.01.

Consider ATGATGTGA, for which the switch fluorescence ratio came to 0.981.

Consider AGATTTAGT, for which the switch fluorescence ratio is 0.947. On to TATATGCATA, for which the switch fluorescence ratio amounted to 0.986.

Consider TTCAAAGCGT, for which the switch fluorescence ratio was found to be 1.03. Regarding ACCTCGCTCA, the switch fluorescence ratio came to 1.15.

Turning to CGGTTATCGT, the switch fluorescence ratio was 1.03.

GGGACAAGCG: the switch fluorescence ratio amounted to 0.968.

As to GAAACCGAGG, the switch fluorescence ratio is 1.
